Measurements: the supplement of paper PMC3724861
The list shows a part of the results.

system: T1, Caupolican (Caup) homeodomain DNA-binding domain; assay: PBM E-score (8-mer, recovered from the published 9-mer minima) (E-score (dimensionless, -0.5 to 0.5)); Drosophila protein; higher = stronger relative binding preference, active = 0.31 or more
T1 sequence: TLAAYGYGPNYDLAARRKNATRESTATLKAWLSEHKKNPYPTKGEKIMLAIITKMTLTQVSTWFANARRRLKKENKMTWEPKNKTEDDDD
In short: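 Caup's homeodomain DNA-binding domain (residues 214-303) was made by in vitro transcription and translation and applied at 100 nM to custom-designed protein binding microarrays. Each value is an enrichment score that gives relative binding preference for a short DNA word, with higher meaning stronger. The 8-mer values were recovered from published 9-mer scores, each of which was the minimum of its two constituent 8-mer scores. A cutoff of 0.31 marks candidate sites.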

Sequence	PBM E-score
GGCACTGA	inactive: -0.0563
AGCTTCTG	inactive: -0.14
AACGTGCC	inactive: -0.107
ACAAAGGC	inactive: 0.0566
AATGTGCG	inactive: 0.0368
AGAACATC	inactive: 0.235
ACTCTCAA	inactive: 0.00959
AGGCTACA	inactive: 0.142
CGTATTTA	inactive: 0.129
CAGGGCCC	inactive: -0.169
AGATCCCG	inactive: -0.0527
GGCCAGTA	inactive: -0.128
CGATCAGC	inactive: -0.0459
AAGGTTAG	inactive: -0.0357
CTGTTAAC	inactive: 0.117
CACCTCTA	inactive: 0.0765
AATGTTAT	inactive: 0.278
ACCACCCC	inactive: -0.0997
ACTTAAAG	inactive: -0.0269
CCAGCACC	inactive: -0.262
CCTTACCA	inactive: 0.0145
CGGCTTGA	inactive: -0.103
TAAACAAA	inactive: 0.175
CAACGCCC	inactive: -0.102
CTTTGGAA	inactive: -0.0259

Sequence	PBM E-score
CGGATATA	inactive: 0.108
CCGACAGG	inactive: -0.0128
ATCGCGTG	inactive: 0.0811
CAATACAG	inactive: 0.0839
CTACAATC	inactive: 0.229
AAATTCGC	inactive: 0.021
CCTTAATC	inactive: -0.125
CGCTGCTC	inactive: -0.118
GGGCATCA	inactive: -0.164
AACGGCGA	inactive: -0.0202
ACTGAACC	inactive: -0.0558
CTGATGTC	inactive: 0.212
AGCTCCGC	inactive: -0.162
ACTAACGC	inactive: 0.00731
AACAAGAC	active: 0.335
CGGTACAC	inactive: 0.189
GACTGATA	inactive: 0.114
AATGGTGC	inactive: -0.0422
AGGGGGGA	inactive: -0.33
AATATCTG	inactive: 0.0768
TAGTTCCA	≥ 0.0606
CACTGGGA	inactive: -0.0122
ACGTATCT	inactive: -0.0369
CCAATGCC	inactive: -0.222
ATCGATTA	≥ 0.231

Sequence	PBM E-score
GCACTACA	inactive: 0.176
CGTAGCCC	inactive: -0.098
AAGGGCCT	inactive: -0.148
AATGTTGG	inactive: 0.115
GAAACCGC	inactive: 0.00449
ATTTAACG	inactive: 0.113
AGAGTCGC	inactive: -0.111
AATGGACG	≥ 0.144
GAGCGTCC	inactive: -0.119
GGGGCTGA	inactive: -0.121
ATGACACC	inactive: 0.266
ACTCCTAG	inactive: -0.00703
AGCATTCG	inactive: -0.0396
CCAGTAGA	inactive: -0.0183
CTAGAAGC	inactive: -0.125
ATCATAAC	inactive: 0.156
GGATCTTA	inactive: -0.096
AGTAGAAC	inactive: 0.0123
AGGATGCC	≥ -0.00785
ACAGATTA	inactive: 0.0959
AGAAGCTG	inactive: -0.0418
ACCTTAGA	inactive: -0.0802
GGTTAACA	inactive: 0.192
CCCGGCTA	inactive: -0.141
